Target: T1, E-S6 (monomeric full-length extracellular mouse E-selectin) (mouse, UniProt Q00690 22-557)
T1 construct: mouse E-selectin, extracellular region as in E-S6-IgG without the Fc region: lectin domain, EGF-like domain and six SCR domains; also called monomer E-selectin; monomeric full-length E-S6; source: silkworm larvae (recombinant BmNPV), from the serum, purified (HisTrap Excel, StrepTrap HP); not shown: TEV cleavage site, C-terminal, kept; His8, C-terminal, kept; Strep II, C-terminal, kept
T1 sequence (looked up): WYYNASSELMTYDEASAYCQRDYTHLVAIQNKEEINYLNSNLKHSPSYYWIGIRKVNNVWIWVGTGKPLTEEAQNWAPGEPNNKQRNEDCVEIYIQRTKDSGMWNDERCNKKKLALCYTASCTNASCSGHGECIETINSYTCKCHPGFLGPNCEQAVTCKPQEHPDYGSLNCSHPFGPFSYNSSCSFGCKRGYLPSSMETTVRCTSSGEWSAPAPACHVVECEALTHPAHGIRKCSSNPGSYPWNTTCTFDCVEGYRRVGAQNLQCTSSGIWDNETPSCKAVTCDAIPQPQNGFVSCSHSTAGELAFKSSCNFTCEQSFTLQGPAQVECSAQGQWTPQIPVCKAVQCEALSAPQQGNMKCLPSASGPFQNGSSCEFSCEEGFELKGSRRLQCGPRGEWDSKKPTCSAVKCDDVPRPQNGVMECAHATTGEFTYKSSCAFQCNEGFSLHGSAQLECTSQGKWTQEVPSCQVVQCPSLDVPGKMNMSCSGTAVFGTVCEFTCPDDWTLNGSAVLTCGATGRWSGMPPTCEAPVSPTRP
Assay: SPR; Biacore T-100, CM5 chip, 25 °C; CD44/HCELL captured from KG1a lysate by immobilised Hermes-3; E-selectin proteins injected in sequential concentrations at 20 ul/min, 90 s each; running buffer 50 mM Tris pH 8.0, 1% Triton X-100, 50 mM NaCl, 1 mM CaCl2; isotype control subtracted; kon calculated from KD and koff
Settings: one partner purified

- Kd: 2040 nM
- kon: 110 M⁻¹ s⁻¹
B1: CD44/HCELL (hematopoietic cell E- and/or L-selectin ligand) (natural protein, human (endogenous in KG1a))
chain: [about 200 residues not given here]ATRDQDTFHPSGGSHTTHGSESDGHSHGSQEGGANTTSGPIRTPQIPEWLIILASLLALALILAVCIAVNSRRRCGQKKKLVINSGNGAVEDRKPSGLNGEASKSQEMVHLVNKESSETPDQFMTADETRNLQNVDMKIGV
notes: A glycosylated ligand; source: endogenous, KG1a lysate; immunoprecipitated with anti-CD44 (clone 515) for blots, captured on the chip by Hermes-3 for SPR

Reference: article PMC7076219, “Functional binding of E-selectin to its ligands is enhanced by structural features beyond its lectin domain” (The Journal of Biological Chemistry, 2020)
